Test results published in patent publication US20260216242A1 (ALMAC DISCOVERY, published 2026).

How the values were obtained:
[1] = target: T1, Human ALPL (leucine zipper) (human); test: BLI, antigen immobilised
T1 construct: Whole entry: fused with a cysteine stabilised leucine zipper and His tag; also called hALPL
T1 chain: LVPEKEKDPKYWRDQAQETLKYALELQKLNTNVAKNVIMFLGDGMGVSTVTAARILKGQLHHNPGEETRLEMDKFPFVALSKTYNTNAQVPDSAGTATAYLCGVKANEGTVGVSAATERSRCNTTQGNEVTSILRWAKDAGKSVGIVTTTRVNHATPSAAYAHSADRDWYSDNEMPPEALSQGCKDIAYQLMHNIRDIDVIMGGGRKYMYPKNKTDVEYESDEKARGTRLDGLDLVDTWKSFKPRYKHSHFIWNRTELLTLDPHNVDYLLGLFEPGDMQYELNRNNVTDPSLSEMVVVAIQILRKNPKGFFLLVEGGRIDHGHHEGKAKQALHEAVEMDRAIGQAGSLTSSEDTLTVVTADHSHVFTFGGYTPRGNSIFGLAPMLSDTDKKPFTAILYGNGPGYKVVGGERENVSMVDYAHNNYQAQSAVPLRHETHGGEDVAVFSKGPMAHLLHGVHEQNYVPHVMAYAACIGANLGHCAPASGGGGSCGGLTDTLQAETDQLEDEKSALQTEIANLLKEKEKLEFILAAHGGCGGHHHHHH
Procedure: (§1) Binding kinetics were determined using the Biolayer Interferometry (BLI) Octet K2 or R4 system (Sartorius). […] For KD apparent measurements, the ALPP proteins were immobilised in sodium acetate pH5 buffer to AR2G sensors using amine coupling. To measure 1:1 interactions, AHC biosensors were used to immobilise Fc-fused proteins. All assays were conducted in HBS-EP with a plate temperature of 25° C. Ka (M⁻¹s⁻¹), Kd (s⁻¹) and KD (nM) values were determined using Octet Data Analysis High Throughput software (Sartorius) for Biolayer Interferometry.

[2] = target: T2, Mouse ALPPL2 (leucine zipper) (mouse); test: BLI, antigen immobilised
T2 construct: Whole entry: cysteine-stabilised leucine zipper fusion; also called mALPPL2; NCBI #NP_031459
T2 chain: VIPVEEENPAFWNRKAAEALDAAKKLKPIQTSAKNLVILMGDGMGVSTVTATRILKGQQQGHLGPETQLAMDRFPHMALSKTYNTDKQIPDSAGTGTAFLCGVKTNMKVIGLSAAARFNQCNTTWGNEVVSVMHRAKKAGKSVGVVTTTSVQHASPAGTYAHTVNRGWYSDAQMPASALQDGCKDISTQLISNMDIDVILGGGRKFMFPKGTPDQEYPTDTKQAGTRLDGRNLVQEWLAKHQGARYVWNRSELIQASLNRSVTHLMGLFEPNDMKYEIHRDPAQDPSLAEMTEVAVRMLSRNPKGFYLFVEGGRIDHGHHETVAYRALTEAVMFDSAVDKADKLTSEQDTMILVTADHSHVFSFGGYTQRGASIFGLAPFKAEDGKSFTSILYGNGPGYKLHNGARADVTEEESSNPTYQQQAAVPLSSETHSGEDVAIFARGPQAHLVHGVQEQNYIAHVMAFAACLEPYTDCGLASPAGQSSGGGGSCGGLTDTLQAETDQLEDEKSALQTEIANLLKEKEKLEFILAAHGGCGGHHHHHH
Procedure: as §1
(§2) To assess cross-species reactivity of the ALPP/ALPPL2 targeting VHH-hFc fusions, BLI was conducted using mouse ALPPL2 (NCBI #NP_031459), rhesus monkey ALPP (NCBI #XP_028687061) and cynomolgus monkey ALPP (NCBI #XP_045223825). […] BLI was conducted as described above.

[3] = target: T3, Human ALPP (leucine zipper) (human); test: BLI, antigen immobilised, KD apparent
T3 construct: Whole entry: ALPP fused with a cysteine stabilised leucine zipper and His tag; also called hALPP
T3 chain: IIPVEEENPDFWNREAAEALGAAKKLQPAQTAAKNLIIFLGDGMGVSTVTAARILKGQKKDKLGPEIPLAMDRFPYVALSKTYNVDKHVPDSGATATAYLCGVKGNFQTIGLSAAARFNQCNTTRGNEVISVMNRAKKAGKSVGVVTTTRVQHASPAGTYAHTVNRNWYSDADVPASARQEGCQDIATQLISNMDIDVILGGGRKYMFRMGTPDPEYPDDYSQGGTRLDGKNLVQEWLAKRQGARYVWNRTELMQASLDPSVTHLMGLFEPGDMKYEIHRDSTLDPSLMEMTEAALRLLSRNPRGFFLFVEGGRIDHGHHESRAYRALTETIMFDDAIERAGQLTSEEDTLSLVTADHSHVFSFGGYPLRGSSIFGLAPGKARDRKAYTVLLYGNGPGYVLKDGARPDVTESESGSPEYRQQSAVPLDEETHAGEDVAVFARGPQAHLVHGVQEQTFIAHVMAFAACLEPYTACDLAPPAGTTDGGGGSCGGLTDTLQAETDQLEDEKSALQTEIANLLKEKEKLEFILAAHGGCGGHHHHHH
Procedure: as §1

[4] = target: T4, Rhesus monkey ALPP (leucine zipper) (rhesus monkey); test: BLI, antigen immobilised, KD apparent
T4 construct: Whole entry: cysteine-stabilised leucine zipper fusion; also called rmALPP; NCBI #XP_028687061
T4 chain: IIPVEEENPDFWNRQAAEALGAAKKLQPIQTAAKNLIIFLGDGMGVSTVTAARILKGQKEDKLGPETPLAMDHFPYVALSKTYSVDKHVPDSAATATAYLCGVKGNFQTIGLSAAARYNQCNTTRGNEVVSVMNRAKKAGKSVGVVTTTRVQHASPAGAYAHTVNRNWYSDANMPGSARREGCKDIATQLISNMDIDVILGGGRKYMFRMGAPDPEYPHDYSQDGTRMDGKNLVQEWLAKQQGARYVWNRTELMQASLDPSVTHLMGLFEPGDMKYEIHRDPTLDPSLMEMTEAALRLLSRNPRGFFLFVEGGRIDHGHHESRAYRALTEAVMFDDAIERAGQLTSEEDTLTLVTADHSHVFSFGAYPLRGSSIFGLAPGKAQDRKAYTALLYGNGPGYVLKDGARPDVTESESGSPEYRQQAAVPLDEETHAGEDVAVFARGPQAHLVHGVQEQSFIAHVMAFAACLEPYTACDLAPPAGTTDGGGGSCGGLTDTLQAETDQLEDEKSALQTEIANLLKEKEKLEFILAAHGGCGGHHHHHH
Procedure: as §1, §2

[5] = target: T5, ALPI His homodimer (human, UniProt P09923 20-503); test: BLI, antigen immobilised; very low response
T5 construct: Whole entry with His tag; used in ELISA and BLI; also called hALPI
T5 sequence: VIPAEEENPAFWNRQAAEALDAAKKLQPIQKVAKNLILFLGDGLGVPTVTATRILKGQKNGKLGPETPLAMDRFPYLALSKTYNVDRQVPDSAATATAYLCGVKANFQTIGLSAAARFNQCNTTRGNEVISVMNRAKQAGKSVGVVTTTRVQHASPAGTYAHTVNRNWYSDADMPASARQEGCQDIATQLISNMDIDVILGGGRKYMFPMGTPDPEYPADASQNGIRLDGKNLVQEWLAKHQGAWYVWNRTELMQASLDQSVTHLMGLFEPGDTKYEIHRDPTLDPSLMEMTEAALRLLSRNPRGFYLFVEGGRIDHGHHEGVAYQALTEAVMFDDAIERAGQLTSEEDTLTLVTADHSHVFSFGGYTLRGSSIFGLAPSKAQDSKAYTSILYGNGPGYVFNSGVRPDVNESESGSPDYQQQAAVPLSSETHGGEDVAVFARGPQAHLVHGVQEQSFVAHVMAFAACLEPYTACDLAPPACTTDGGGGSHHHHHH
Procedure: as §1
BLI data (Table 9) confirms the high affinity binding of VHH-hFc fusion proteins to ALPP and ALPPL2.

B1: F08-hFc (S239C) (Fc fusion)
chain: QVQLVESGGGSVQAGGSLRLSCAASGPSLSNYAMGWFRQAPGKEREFVAGISWGGGRTSYTDSVKGRFTISRDNAKNTVYLQMNNLKPEDTGVYYCAGRYGRGRNVEYEYDYWGQGTQVTVSSGGGGSGGGGSGGGGS[human IgG1 Fc with changes not spelt out]
notes: Built from parts; also called #338
binding result [1]: no binding
binding result [2]: no binding
Kd [3]: < 0.01 nM
koff [3]: < 1e-07 s⁻¹
kon [3]: 192000 M⁻¹ s⁻¹
Kd [4]: < 0.01 nM
koff [4]: < 1e-07 s⁻¹
kon [4]: 297000 M⁻¹ s⁻¹
Kd [5]: 10.8 nM
